Values joined by “and” are separate entries in the source; they are usually repeats but may differ in a detail not shown here. Identical values can stand only once. About 50,000 (12%) of roughly 420,000 compounds were called active. Inconclusive results, whose numbers are uncertain, are shown with a selection of clear calls. Calls come from the whole dose curve; as a rule, active = well fitted inhibition curve with a large enough effect; inconclusive = small, poorly fitted or top-dose-only effect; inactive = flat fitted curve, though single readings scatter. No potency is given beside an inconclusive call; the fits are too rough. Where a structure was tested more than once in an assay, its records may differ in their call.
Experiment: qHTS for Inhibitors of human tyrosyl-DNA phosphodiesterase 1 (TDP1): qHTS in cells in presence of CPT; note: nearly all actives have a fitted effect of over 55% in size
Details: chicken DT40 Tdp1-/-;hTDP1 cells + 20 nM CPT, ATP luminescence, 48 h; activity change, negative = growth inhibition: at 46.2 µM (top of the series) unless noted
Summary of the method: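 Chicken DT40 Tdp1-/- cells complemented with human TDP1, 400 cells/well, exposed to compounds plus 20 nM camptothecin for at least 48 h at 37 C; viability read as ATP content by CellTiter-Glo luminescence.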
% is set by controls: 0 for no effect and ±100 for the full control effect; potency is the fitted concentration of half-maximal effect; tags give direction and shape of the fitted curve.

SMILES | Potency | activity change, negative = growth inhibition
O=C(Nc1cccc(F)c1)N1CC[C@@]2(CCCN(C(=O)Oc3ccccc3)C2)C1 | inconclusive [inhibitor, full curve, poor fit] | 
O=C(NCCc1ccccc1)c1ccc2nccnc2c1 | inconclusive [inhibitor, partial curve] | 
C1=NCCCN2CCCCC12 (centres undefined) |  | inactive: -4.55%
COc1ccc(CCNc2nc3ccc(Cl)cc3n3cnnc23)cc1OC | active: 18.4 µM | 
CC[N+](C)(CC)CCCCOc1ccc2c(c1)C(=O)c1cc(OCCCC[N+](C)(CC)CC)ccc1-2 | inconclusive [inhibitor, single point] | 
CCC(=NCCc1ccccc1)c1c(O)n(C2CCCCC2)c(=O)[nH]c1=O | inconclusive [inhibitor, single point] | 
O=C(O)c1[nH]c(=O)[nH]c(=O)c1F | active: 11.6 µM | 
O=C(Nc1ccc(Cl)c(C(F)(F)F)c1)C1CCCN(S(=O)(=O)c2cccc3cccnc23)C1 (centres undefined) | active: 7.31 µM | 
O=C(Nc1ccccc1OC(=O)N1CCOCC1)N1CCOCC1 |  | inactive: 2.23%
O=C(CCCn1c(=O)[nH]c2cc(Cl)ccc2c1=O)N1CCC2(CC1)OCCO2 |  | inactive: -18.1%
CC(C)OC(=O)Nc1ccc(N=C(N)N[N+](=O)[O-])cc1 |  | inactive: -4.34%
O=C1NCN(c2ccccc2)C12CCN(C(c1ccccc1OC(F)(F)F)c1nnnn1-c1ccc3c(c1)OCCO3)CC2 (centres undefined) | inconclusive [inhibitor, single point] | 
Cc1c(C(=O)N2CCC(Cc3ccccc3)CC2)sc2ncnc(N3CCC(C)CC3)c12 | active: 20.6 µM | 
CN(C)c1ccc([P+](=O)c2ccc(N(C)C)cc2)cc1 | inconclusive [inhibitor, single point] | 
O=C1NC(=O)C(=Cc2coc3ccc(O)cc3c2=O)C(=O)N1 | active: 16.4 µM | 
O=C(C[C@@H]1CC[C@@H]2[C@H](COC[C@H](O)CN2Cc2cccc(C(F)(F)F)c2)O1)NCc1ccc(Cl)cc1 | active: 11.6 µM | 
COC(=O)C(O)(c1ccc(NC(=O)c2ccccc2)cc1)C(F)(F)F (centres undefined) |  | inactive: 4.38%
COC(=O)C1=C(c2ccc3ccccc3c2)C[C@@H]2CC[C@H]1N2C(=O)NC1Cc2ccccc2C1 | inconclusive [inhibitor, single point] | 
CC(=O)OC1CC[C@@]2(C)C3CC[C@]4(C)C(=O)CCC4C3CC[C@H]2C1 (some centres undefined) | inconclusive [inhibitor, full curve] | 
C[C@]12CC[C@@H](O)CC1=CCC1C2CC[C@@]2(C)C1CC[C@@H]2N (some centres undefined) | inconclusive [inhibitor, single point] | 
Cc1cc(C(=O)CN2C(=O)c3ccccc3C2=O)c(C)n1C1CC1 | inconclusive [inhibitor, partial curve, poor fit] | 
c1ccc2sc(SNC3CCCCC3)nc2c1 |  | inactive: -13.8%
CCCOc1ccc(C(C)=O)cc1Cc1c(O)[nH]c(=S)[nH]c1=O | inconclusive [inhibitor, single point] | 

SMILES | Potency | activity change, negative = growth inhibition
COc1cccc(CN2CCCC(C(=O)c3ccccc3SC)C2)c1O (centres undefined) | inconclusive [inhibitor, single point] | 
CCCCC(=O)OCC(=O)C1(O)Cc2c(O)c3c(c(O)c2C(OC2CC(NC(=O)C(F)(F)F)C(O)C(C)O2)C1)C(=O)c1c(OC)cccc1C3=O (centres undefined) | active: 1.16 µM | 
COc1cc(C(=O)NCCSc2c(-c3ccccc3)[nH]c3ccccc23)cc(OC)c1OC | active: 8.2 µM | 
COc1ccc(CCCc2nnc(SCC(=O)Nc3ccc(C)c(C)c3)o2)cc1 | inconclusive [inhibitor, single point] | 
COC(=O)[C@@H]1N=C(c2ccc(OC)cc2)O[C@]12C(=O)N(C)c1ccc(Cl)cc12 | inconclusive [inhibitor, single point] | 
NP(=O)(Oc1ccccc1)c1ccccc1 (centres undefined) |  | inactive: 8.13%
CCOC(=O)c1ccc(NC(=O)N2CC3CC(C2)c2cccc(=O)n2C3)cc1 (centres undefined) |  | inactive: -16.4%
COc1ccc(-[n+]2c(-c3ccccc3)cc(-c3ccccc3)cc2-c2ccccc2)cc1 | active: 0.411 µM | 
Cc1ccc(N/N=C/c2c(O)n(-c3ccccc3)c(=O)[nH]c2=O)cc1 | inconclusive [inhibitor, single point] | 
CCOC(=O)C1=C(c2ccccc2)OC(N)=C(C#N)C1C(C)C (centres undefined) | inconclusive [inhibitor, single point] | 
CC(=O)Nc1cc(-c2cccc(CO)c2)cn2c(-c3cccc(C(F)(F)F)c3)cnc12 | active: 11.6 µM | 
COc1cc(C2c3cc4c(c(O)c3CC3COC(=O)C32)OCO4)cc(OC)c1O (centres undefined) | active: 0.0708 µM | 
CC(C)(C)c1cc(C=C(C#N)C#N)cc(C(C)(C)C)c1O | active: 580 nM and active: 2.24 µM and active: 651 nM | 
Cc1ccc(N2CC(C(=O)Nc3cc(S(=O)(=O)N4CCCCC4)ccc3C)CC2=O)cc1 (centres undefined) | inconclusive [inhibitor, partial curve] | 
Cc1ccc(Cl)cc1NC(=O)Cn1c(=O)oc2cc(S(=O)(=O)N3CCCCCC3)ccc21 | active: 14.6 µM | 
N=C1c2ccccc2CN1c1ccc(F)c([N+](=O)[O-])c1 | inconclusive [inhibitor, single point] | 
CC(C)[C@@H]1CN[C@H](C(=O)O)[C@@H]1CC(=O)O |  | inactive: -1.31%
Cc1ccc(C)c(S(=O)(=O)c2nnn3c2nc(N2CCCC2)c2sccc23)c1 | active: 16.4 µM | 
CCCCN1C(=O)/C(=C/C=C/c2ccco2)C(=O)NC1=S |  | inactive: -26.2%
Cc1ccc(NP(=O)(Oc2ccccc2F)Oc2ccccc2F)cc1C | inconclusive [inhibitor, partial curve, poor fit] | 
CCCCn1c(C)c(C(=O)O)c2cc(OC)c3ccccc3c21 |  | inactive: -13.8%
CCOC(=O)C1(CCc2ccccc2)CCN(Cc2cccc3cnccc23)CC1 | inconclusive [inhibitor, single point] | 
COc1ccc(N2C(=O)NC(=O)/C(=C\c3cn(CC(=O)N4CCOCC4)c4ccccc34)C2=O)c(OC)c1 | inconclusive [inhibitor, single point] | 

SMILES | Potency | activity change, negative = growth inhibition
COC[C@H]([C@@H](O)[C@@H](O)C(=O)NCC[C@@H](C)c1nc(/C=C/C[C@H]2OC3(C[C@H](O)[C@H]2C)OC([C@@H](C[C@@H](O)[C@@H](C)[C@@H](O)[C@@H](C)/C=C(C)/C(C)=C/C=C/C(C)=C\C#N)OC)[C@@H](OP(=O)(O)O)C3(C)C)co1)N(C)C (some centres undefined) | active: 0.0022 µM | 
CCCCn1c(=O)c(C=Nc2cc([N+](=O)[O-])ccc2OC)c(O)n(CCCCl)c1=O |  | inactive: -22.4%
Cc1ccc2nc(C)n(-c3ccc(F)cc3)c(=O)c2c1 | inconclusive [inhibitor, single point] | 
O=NN(CCF)C(=O)NC1CCC(=O)NC1=O (centres undefined) |  | inactive: -24.9%
COc1ccc(C2NCc3ccc4c(c3-n3cccc32)OCO4)cc1O (centres undefined) | active: 4.11 µM | 
CC[C@H]1CN(C)CCc2c([nH]c3ccccc23)C(=O)C[C@@H]1/C(=C\OC)C(=O)OC | active: 29.1 µM | 
O=C(COc1ccccc1)N1CCN(CCN2C(=O)c3cccc4cccc(c34)C2=O)CC1 | inconclusive [inhibitor, single point] | 
COc1cccc(CN2CCN(c3ccc(F)cc3)CC2)c1OC | inconclusive [inhibitor, single point] | 
COCCNC(=O)c1c(NC(=O)c2ccco2)n(Cc2ccccc2)c2nc3ccccc3nc12 | inconclusive [inhibitor, single point] | 
CCCCN1C(=O)NC(=O)C2(Cc3c(nc4c(C)cccn4c3=O)N3CCc4ccccc4C32)C1=O (centres undefined) | active: 20.6 µM | 
O=C(NC(=O)c1c(F)cccc1F)Nc1ccc(Cl)cc1 |  | inactive: -8.75%
COC(=O)c1ccc(NC2=C(Cl)C(=O)OC2OC(=O)c2ccccc2)cc1 (centres undefined) | inconclusive [inhibitor, single point] | 
CCCCCCn1c(=O)c(C(=O)Nc2cccc(C)n2)c(O)c2ccccc21 | active: 3.66 µM | 
C[C@@H]1C[C@@H]([C@H](O)CC2CC(=O)NC(=O)C2)C(=O)[C@@H](C)C1 | active: 150 nM and active: 47.3 nM and active: 164 nM | 
CCc1ccc(NC(=S)NC2CC3CCC(C2)N3Cc2ccco2)cc1 (centres undefined) | active: 18.4 µM | 
Cc1sc2ncnc(N3CCC(C(=O)Nc4ccc(C#N)c(Cl)c4)CC3)c2c1C | active: 18.4 µM | 
Cc1ccc(S(=O)(=O)N2Cc3cc(-c4ccccc4)ccc3-n3nncc3C2)cc1 | inconclusive [inhibitor, single point] | 
COC(=O)C1=C(c2ccc(Cl)c(C(F)(F)F)c2)C[C@@H]2CC[C@H]1N2C(=O)NCCOc1ccccc1Cl | inconclusive [inhibitor, single point] | 
CCc1ccc(NC(=O)c2ccc3oc(=O)n(Cc4ccccc4)c3c2)cc1 | inconclusive [inhibitor, single point] | 
COC(=O)C1=C(c2ccc(-c3ccccc3)c(F)c2)C[C@@H]2CC[C@H]1N2C(=O)NCCOc1ccc(OC)cc1 | active: 14.6 µM | 
COc1ccc(-n2c(-c3ccccc3)nc3ccccc3c2=O)cc1 | active: 18.4 µM | 
CCOC(=O)C1(CCc2ccccc2)CCN(C2CCSCC2)CC1 | active: 8.2 µM | 
CCC1(C2=NCCN2)Cc2ccccc2O1 (centres undefined) | inactive and active: 4.73 µM | 

From PubChem BioAssay AID686979 (National Center for Advancing Translational Sciences (NCATS), 2013)
